Measurements published in ChEMBL document CHEMBL1201862, “PubChem BioAssay data set” (2004).

The compounds below were run on NCI-H322M (assay: NCI-60 cell line screen, 48 h).
In the case of `C/C(=N\NC(N)=S)C(CN1CCCCC1)C(C1=C(O)c2ccccc2OC1)c1ccccc1` (configuration not stated), the GI50 is reported as inactive: > 100 µM.
In the case of `CCCCc1ccc(-n2sc3ncc(-c4ccccc4)cc3c2=O)cc1`, the GI50 is reported as inactive: > 100 µM.
For `O=C(c1ccccc1)[C@H]1Nc2cnccc2C2c3ccccc3CC21` (some centres not stated), the GI50 was inactive: 48.6 µM.
In the case of `CCCc1cc(=O)oc2c(C=O)c(O)cc(O)c12`, the GI50 is reported as inactive: 24.9 µM.
With `NC(=S)NS(=O)(=O)c1ccc(F)cc1` the GI50 was inactive: > 100 µM.
For `O=C(O)CCCC(=O)Nn1c(Cc2ccc(Cl)cc2)n[nH]c1=O`, the GI50 was inactive: > 100 µM.
In the case of `Cc1cc(=O)[nH]c(-n2[nH]c3c(c2=O)CCCC3)n1`, the GI50 is reported as inactive: > 100 µM.
For `COc1ccc2c(c1)CCN1CCc3ccccc3CC21` (configuration not stated), the GI50 was inactive: 48.2 µM.
In the case of `CN(CCO)/N=N/c1[nH]cnc1C(N)=O`, the GI50 is reported as inactive: > 100 µM.
For `N=C(NCc1ccccc1)N/N=C\c1ccnc2ccccc12`, the GI50 was inactive: 15.1 µM.
For `NS(=O)(=O)c1ccc(NC(=O)c2cccc3cc4ccccc4nc23)cc1`, the GI50 was inactive: 25.5 µM.
In the case of `Nc1c(Br)cc2c(c1Br)Cc1cc(Br)ccc1-2`, the GI50 is reported as inactive: > 100 µM.
For `CC(=O)OCCN(C1=NCCN1)/[N+](C=c1ccc(=C=[N-])cc1)=C/c1ccc(C#N)cc1`, the GI50 was inactive: > 100 µM.
`N#C[BH2-][n+]1ccc(C(=O)NNC(c2ccccc2)C(F)(F)F)cc1` (configuration not stated) was tested, and the GI50 was inactive: > 100 µM.
In the case of `OCC12C=CC(C1)c1ccccc12` (configuration not stated), the GI50 is reported as inactive: > 100 µM.
In the case of `CN(c1n[n+]2c(-c3ccccc3)csc2s1)c1n[n+]2c(-c3ccccc3)csc2s1`, the GI50 is reported as inactive: > 100 µM.
`CN(C)CCCOC(=O)C(O)(Cc1ccccc1)C1CC1` (configuration not stated) was tested, and the GI50 was inactive: > 100 µM.
`CC(C)=NOC(=O)Nc1cccc2c1OCO2` was tested, and the GI50 was inactive: > 100 µM.
In the case of `C/C(=N\N)C(CN1CCOCC1)C(c1ccccc1)c1c(O)c2ccccc2oc1=O` (configuration not stated), the GI50 is reported as inactive: > 100 µM.
For `CCOC(=O)C(=O)Nc1ccccc1C(F)(F)F`, the GI50 was inactive: > 100 µM.
`NC1CC(=O)c2c(Br)csc21` (configuration not stated) was tested, and the GI50 was inactive: > 100 µM.
`COc1ccc2oc(-c3cccnc3)cc(=O)c2c1` was tested, and the GI50 was inactive: 70.8 µM.
In the case of `CC(=O)OC(CC(C)C)P1(=O)N(CC(C)(C)C)[C@@H]2CCCC[C@H]2N1CC(C)(C)C` (some centres not stated), the GI50 is reported as inactive: 12.9 µM.
For `N#CCc1nc(-c2cc3ccccc3oc2=O)cs1`, the GI50 was inactive: > 100 µM.
With `c1ccc(CSC(SCc2ccccc2)c2ccc3c(c2)OCO3)cc1` the GI50 was inactive: > 10 µM.
`O=C(Nc1ccc(Cl)cc1)c1cc2c(cc1Cl)Sc1nccn1S2(=O)=O` was tested, and the GI50 was inactive: > 100 µM.
For `COc1ccc(NC(=O)c2cc(OC)c(OC)c(OC)c2)cc1`, the GI50 was inactive: 32.8 µM.
With `CO[C@@H]1O[C@H](C(=O)c2ccccc2)[C@H]2OC(C)(C)O[C@@H]12` the GI50 was inactive: > 100 µM.
With `CCOC(=O)NC(=O)c1cn(CCN2CCNCC2)c(=O)[nH]c1=O` the GI50 was inactive: > 100 µM.
`C1CCC2(CC1)O[C@@H]1[C@@H](O2)[C@@H](O[C@H]2O[C@@H]3COC4(CCCCC4)O[C@H]3[C@@H]3OC4(CCCCC4)O[C@@H]23)O[C@@H]2COC3(CCCCC3)O[C@@H]12` was tested, and the GI50 was inactive: > 100 µM.
In the case of `N#Cc1c(C#N)c(SSc2c(C#N)c(C#N)c(N)n2-c2ccc(F)cc2)n(-c2ccc(F)cc2)c1N`, the GI50 is reported as inactive: 17.4 µM.
With `Cc1nc2ccc(C(F)(F)F)cc2nc1Nc1ccc(Cl)c(Cl)c1` the GI50 was inactive: 12.7 µM.
In the case of `COc1nc(OC)nc(-c2cccc(F)c2)n1`, the GI50 is reported as inactive: 19.3 µM.
With `N#C/C(=C/c1ccsc1)C(=O)c1ccccc1` the GI50 was inactive: > 100 µM.
In the case of `O=c1c2sc3ccccc3sc=2c(=O)c2c(Cl)c(Cl)c(Cl)c(Cl)c12`, the GI50 is reported as inactive: > 100 µM.
In the case of `N#CC(NNC(=O)c1ccccc1O)c1cccc(O)c1` (configuration not stated), the GI50 is reported as inactive: 19.3 µM.
For `CCOC(=O)C1C=C2O[C@@H]3OC4(CCCCC4)O[C@@H]3C2C2C(=O)CCC(=O)[C@@]12C(=O)OC` (some centres not stated), the GI50 was inactive: > 100 µM.
With `Cn1c(N2CCCC2)c(C=O)c(=O)n(C)c1=O` the GI50 was inactive: > 100 µM.
In the case of `CC1OC(OCC2OC(Oc3c(-c4ccc(O)cc4)oc4cc(O)cc(O)c4c3=O)C(OC3OC(C)C(O)C(O)C3O)C(O)C2O)C(O)C(O)C1O` (configuration not stated), the GI50 is reported as inactive: > 100 µM.
With `N#CC(C#N)=CNC(=S)c1ccncc1` the GI50 was inactive: > 100 µM.
In the case of `C[C@]12CC[C@H](O)CC1=CC[C@@H]1C2CC[C@]2(C)Nc3c(cnn3-c3ccc(F)cc3)CC12` (some centres not stated), the GI50 is reported as inactive: 33 µM.
`COc1cc(OCc2nc3cc(C(F)(F)F)ccc3nc2-c2ccccc2)cc(OC)c1OC` was tested, and the GI50 was inactive: 57.3 µM.
In the case of `O=C(O)CCSc1ncnc2[nH]cnc12`, the GI50 is reported as inactive: > 100 µM.
With `COC1/C=C(C)/C=C/C(C)/C=C/C(=O)OC(/C(C)=C/C=C(\C)CNC(=O)[C@H](CO)NC=O)C(C)/C=C/C=C/C(OC)CC/C=C(C)/C=C/C1` (some centres not stated) the GI50 was active: 0.0542 µM.
In the case of `COc1cccc2c1C(=O)c1c(O)c3c(c(O)c1C2=O)C[C@@](O)(/C(C)=N/NC(=O)c1ccc(Cl)c(Cl)c1)C[C@@H]3OC1CC(N)C(O)C(C)O1` (some centres not stated), the GI50 is reported as active: 0.451 µM.
`Oc1c(Cl)ccc2cccnc12` was tested, and the GI50 was inactive: 7.57 µM.
`O=C1Nc2ccccc2/C1=N/N1C(=O)/C(=C/c2ccccc2S)N=C1c1ccccc1` was tested, and the GI50 was inactive: > 100 µM.
In the case of `CCNC1=C(NC(=O)CC)C(=O)c2ccccc2C1=O`, the GI50 is reported as inactive: > 100 µM.
With `CP(C)C.[Ag][I]` the GI50 was inactive: > 100 µM.
In the case of `N#Cc1cccc(NC(=O)c2ccc(C(=O)O)c(C(=O)c3ccc(C(=O)O)c(C(=O)Nc4cccc(C#N)c4)c3)c2)c1`, the GI50 is reported as inactive: > 100 µM.
In the case of `CCC(C)C(=O)OC1C(=O)OC2CC3C(C)=CC(=O)C(O)C3(C)C3C4(O)OCC23C1C(C)C4O` (configuration not stated), the GI50 is reported as active: 0.36 µM.
For `O=C(O)\C=C/C=C/C=C/C=C/C(=O)O`, the GI50 was inactive: > 100 µM.
`O=c1oc2ccc(Cl)cc2cc1-c1cn2ccccc2n1` was tested, and the GI50 was inactive: > 54.1 µM.
For `COc1cc(/C=C2\N=C(c3ccccc3)N(/N=C/c3cc4cc(C)ccc4nc3Cl)C2=O)ccc1O`, the GI50 was inactive: 69.2 µM.
In the case of `COC1=C2C[C@](OC)(C#CC=CC#CC2O)CC1(C)C` (some centres not stated), the GI50 is reported as inactive: > 100 µM.
For `COC(=O)c1ccc(C)cc1C1CN=NC12Cc1cccc(C)c1C2=O` (configuration not stated), the GI50 was inactive: > 100 µM.
For `CCN(CC)CCNc1ccc2ncn3c4ccc(O)cc4c(=O)c1c23`, the GI50 was active: 1.04 µM.
In the case of `C[Si](C)(C)C#C[I+]c1ccccc1`, the GI50 is reported as inactive: > 100 µM.
In the case of `CCOC(=O)Cc1ccc(Nc2nc3ccccc3nc2C(=O)OCC)cc1`, the GI50 is reported as inactive: 85.5 µM.
`Cc1ccc(-c2c(C#N)c(S)n(NS(=O)(=O)c3ccc(C)cc3)c(=O)c2C#N)cc1` was tested, and the GI50 was inactive: 36.2 µM.
With `Cc1[nH]c2c(c1C)S(=O)(=O)c1cc3ccccc3nc1N2` the GI50 was inactive: 36.6 µM.
With `O=C(Nn1c(-c2ccccc2)nc2ccccc2c1=O)c1cccc([N+](=O)[O-])c1` the GI50 was inactive: > 100 µM.
`COc1cccc(/C=C\c2ccnc3ccccc23)c1` was tested, and the GI50 was inactive: > 10 µM.
For `COc1ccc(NC(=O)C(=O)C2NC(=S)NC2=O)c(OC)c1` (configuration not stated), the GI50 was inactive: > 100 µM.
For `CC(O[Si](c1ccccc1)(c1ccccc1)C(C)(C)C)[C@H](NC(=O)OC(C)(C)C)C(=O)O[Si](c1ccccc1)(c1ccccc1)C(C)(C)C` (some centres not stated), the GI50 was inactive: 12.6 µM.
In the case of `COC(=O)c1ccccc1C1CN=NC12Cc1ccc(C)cc1C2=O` (configuration not stated), the GI50 is reported as inactive: > 100 µM.
For `CN(C)CC1(Cc2ccccc2)CC/C(=C\c2ccccc2)C1=O` (configuration not stated), the GI50 was inactive: 58.6 µM.
In the case of `O=C(/C=C/c1ccccc1)/C=N/N1C(=S)N(c2ccccc2)C(=N\c2ccccc2)/C1=N/c1ccccc1`, the GI50 is reported as inactive: > 100 µM.
With `COc1ccc(/C=C/C(=O)/C=C/c2ccc(OC)cc2OC)c(OC)c1` the GI50 was inactive: 24.2 µM.
`CC1=NN(c2nc(N)nc(CBr)n2)C(C)(C)C1` was tested, and the GI50 was inactive: 16.1 µM.
With `CC(=O)C(CN(Cc1ccccc1)Cc1ccccc1)C(c1ccccc1)c1c(O)c2ccccc2oc1=O` (configuration not stated) the GI50 was inactive: > 100 µM.
For `COC(=O)C1CC(C(=O)OC)c2nc3cc([N+](=O)[O-])ccc3nc21` (configuration not stated), the GI50 was inactive: 77.1 µM.
For `COc1cc(C2c3cc4c(cc3OC(N3CCCC3)C2C)OCO4)cc(OC)c1O` (configuration not stated), the GI50 was inactive: 24.4 µM.
For `CC(=O)/C(=C\Nc1c(C)n(C)n(C)c1=O)C(=O)c1ccccc1`, the GI50 was inactive: > 50 µM.
`N#CC12C3C4CC5C6C4C1C6C(O)(C53)N2Cc1ccccc1` (configuration not stated) was tested, and the GI50 was inactive: > 100 µM.
In the case of `CCC1(CC)N=C(C(F)(F)F)c2cc(C(=O)C(F)(F)F)c3ccccc3c2N1`, the GI50 is reported as inactive: 21.9 µM.
With `CC[P+](c1ccccc1)(N(C)C)N(C)C` the GI50 was inactive: > 100 µM.
For `COc1cccc2c1C(=O)c1c(O)c3c(c(O)c1C2=O)C[C@](O)(C(=O)CO)CC3OC1CC(N)C(OC2CCCCO2)C(C)O1` (some centres not stated), the GI50 was active: 0.664 µM.
In the case of `COC(=O)C(Cc1nc2ccccc2nc1O)/C(=N\NC(C)(C)C)C(=O)Nc1c(C)cc(Br)cc1C` (configuration not stated), the GI50 is reported as inactive: 64.6 µM.
With `COc1cc(S(=O)(=O)Nc2nc(-c3ccc(N4C(=O)/C(=C/c5ccccc5)N=C4c4ccccc4)cc3)cs2)ccc1Cl` the GI50 was inactive: 60.5 µM.
For `COc1cc(C2C3=C(COC3=O)Oc3cc4c(cc32)OCO4)cc(OC)c1OC(C)=O` (configuration not stated), the GI50 was active: 0.0262 µM.
In the case of `O=C(O)C12C3C4C1C1C2C3C41I` (configuration not stated), the GI50 is reported as inactive: > 100 µM.
With `C/C(=N/NC(=S)Nc1ccccc1Cl)c1ccccn1` the GI50 was active: < 0.01 µM.
In the case of `Cc1nn(-c2ccccc2)c2c1C(c1cc3ccccc3nc1Cl)NC(=O)N2` (configuration not stated), the GI50 is reported as inactive: 32.7 µM.
For `CCCCC1(C)C=C/C(=C2/C(=O)O/C(=C\C(=O)O)C2=O)O1` (configuration not stated), the GI50 was inactive: > 100 µM.
`O=c1[nH]nc(Cc2ccc(Cl)cc2)n1Nc1ccccc1` was tested, and the GI50 was inactive: > 100 µM.
For `COC(=O)C12Oc3ccc(-c4ccc5c(c4O)C(O)=C4C(=O)CC(C)C(O)C4(C(=O)OC)O5)c(O)c3C(O)=C1C(=O)CC(C)C2O` (configuration not stated), the GI50 was active: 0.0647 µM.
For `N#Cc1c(N)c(C#N)c2c(c1-c1ccc(Cl)cc1)COc1ccccc1-2`, the GI50 was inactive: 2.55 µM.
For `CN(C)c1ccc(/C=C/c2cc(-c3ccccc3)[n+](C)n2-c2ccccc2)cc1`, the GI50 was inactive: 1.32 µM.
For `Cc1cc2c([nH]c3ccccc32)c2c1OC(C)(C)C1C3CC(C)(C)Oc4c(C)cc5c6ccccc6n(c5c43)C21` (configuration not stated), the GI50 was inactive: 85.1 µM.
For `Cn1cnc([N+](=O)[O-])c1[Se]c1nc(N)nc2c1ncn2C1OC(CO)C(O)C1O` (configuration not stated), the GI50 was inactive: > 100 µM.
With `COc1cc(/C=C2\CCC/C(=C\c3ccc(OC(=O)CCCCC4CCSS4)c(OC)c3)C2=O)ccc1OC(=O)CCCCC1CCSS1` (configuration not stated) the GI50 was inactive: > 100 µM.

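Cultured in 96-well plates, cells were exposed to test compound for 48 hours across five concentrations. Here, GI50 denotes the concentration required for 50% inhibition of growth.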 Active and inactive are the calls of the source. Rule as the data show it: active = GI50 up to about 1.1 µM and inactive = higher.
